From patent US12551573B2, “Compositions and methods for the targeting of PCSK9” (Scribe Therapeutics Inc., priority 2022, dated 2026)
Where a chain is given by its changes, count along the chain named. Like-named read-outs stand apart in the source and are kept apart here.

B1: DOMAIN_11858 (protein, listed as Canis lupus)
chain: PQKSVTFEDVAVYFTQTEWDGLSPAQRALYRDVMLENYGNVASLGFSLLKPAVISQLEGAGELEGPSPLAAGTEIGPQGLW
B2: DOMAIN_11865 (protein)
chain: RTGPLTFGDVAVEFSGEEWAWLDSAQRSLHRSVMLENYRNLASLGLCMSKPEMISSLEQSKEPWAVKAKSTRGRCPDLNLC
modifications: Muntiacus muntjak
B3: DOMAIN_11868 (protein, listed as Mandrillus leucophaeus)
chain: FQEPVTFEDVAVYFTQNEWASLHPMQRALYREVMLENYANVTSLSAFPFSKPDLIFQLEQGEAAWGPDPWTLAGGEALRGM
B4: DOMAIN_11923 (protein, listed as Sus scrofa)
chain: SQVTVTFEDVAVLFSRDEWRKLGPSQKNLYQDVMLENYSNLVSLGLPFSKPKVISLLQQGEDPWKVEKESPGSFSPGWKSS
B5: DOMAIN_11925 (protein, listed as Mandrillus leucophaeus)
chain: MEGLVMFQDLFIDFSQEEWECLDAAQKDLYRDVMMENYSSLVSLGLCIPKPDVISLLEQGKEPWMVSRDVLGGWCPDRLKK
B6: DOMAIN_11928 (protein, listed as Neophocaena asiaeorientalis)
chain: SQESVSFEDVAVYFTQNQWASLDSAQRTLYREVMLENYANVTSLAAFPFPKPDLIFQLERGKAPGGLDPWTPIRRKVRGVC
B7: DOMAIN_15126 (protein, listed as Callithrix jacchus)
chain: VWGPLSFMDVFVDFTWEEWQLLDPAQKCLYRSVMLENYSNLVSLGYQHTKPDIIFKLEQGEELCMVQAPIPNQCCPNKVWK
B8: DOMAIN_11933 (protein, listed as Neophocaena asiaeorientalis)
chain: AHGSVMFSDVSIDFSQEEWDYLDLEQRDLYRDVMLENYSNLVSLGCFVSKPDVISLLEQGKEPWKVVRKGRRRYPDLETNY
B9: DOMAIN_11950 (protein, listed as Canis lupus)
chain: SQESVTFRDVAIDFSQEEWEWLQPAQRDLYRHVMLENYSHLVSLGLNISKPYVVSLLEQGKGPWLEKGDVRRDLFSESHGE
B10: DOMAIN_11996 (protein, listed as Canis lupus)
chain: SEESVTFEDVAIYFSENEWTGLAPAQRVLYRDVMLENYGAVAALAAFPFPKPALISQLERGEAPWCKAPQGALDGEGPRGI
B11: DOMAIN_11999 (protein, listed as Canis lupus)
chain: SQSLVTFGDVAVNFSQEEWEWLNSAQRNLYRSVMLENYRNLVSLGLCVSKPDMISSLEQRKEPWMVKRKLTRGRCPDLKAV
B12: DOMAIN_12001 (protein, listed as Mandrillus leucophaeus)
chain: NSGLLTFRDVAIEFSLEEWQCLDTAQKNLYRNVMLENYRNLAFLGVAVSKPDLITCLEKDKEPWNMKRHEMVDEPPGICPH
B13: DOMAIN_12051 (protein)
chain: EVQETLTFDDVAVAFTWEEWQLLAPAQKALYRDVMLENHSNLVSVGFQASTPEVLSKLDQGEPWTMDDEVHCRTRSEVWKF
modifications: Muntiacus muntjak
B14: DOMAIN_16444 (protein, listed as Acinonyx jubatus)
chain: FQASVVFEDVAVNFTPEEWALLNRGQRKLYRDVMLETCRNLSAVGKDGSIPSLVFSEKQKFHSSGDLTRMQEGLLRSPLVE
B15: DOMAIN_12079 (protein)
chain: MGLLTFQDVTVDFTQEEWECLDLGQRGLYRDVMLENYGNLACLGLVVSKPDLVTFLEQMKDPWNVRRIETAIYPGMCLLNI
modifications: Muntiacus muntjak
B16: DOMAIN_12092 (protein, listed as Bos mutus)
chain: QEPVTFEDVAVYFTQNQWASLDSAQRALYREVMLENYANVASLVVSPFPRPDLISQLERGEAPWDPDPWEAEDLRGICPGG
B17: DOMAIN_12133 (protein, listed as Canis lupus)
chain: AQVLVTFKDVAVTFTREEWGQLDLDQKALYQEVMLETYGLLVSLGHPVPKPELTHLLECGQELWKGKRGLSHSTCSGDDTK
B18: DOMAIN_12147 (protein, listed as Neophocaena asiaeorientalis)
chain: AQGSLTLKDVAVDFTWEEWQLLDPDQKDLYRDVMLENYSNLVSVGYQVNKPDILSMLEQGEPPWTLEDEVHSHPHPETDKV
B19: DOMAIN_12158 (protein)
chain: SLGSELFRDVAIVFSQEEWQWLAPAQRDLYRDVMLETYSNLVSLGLAISKPDVISFLEQGKEPWMVERVVSRGLCPVLESR
modifications: Nomascus leucogenys
B20: DOMAIN_12187 (protein, listed as Canis lupus)
chain: B8 chain with H2Q, S8N, D13V, D20E, R27K, V48I, P75L, T79N, N80R
B21: DOMAIN_12191 (protein)
chain: B1 chain with P1R, Q2M, G21S, P24T, S47P, A60G, A71S, T73A, E74G, I75T
modifications: Muntiacus muntjak
B22: DOMAIN_12195 (protein, listed as Canis lupus)
chain: FQGSLTFSDVAIGFSQQEWECLDPVQKSLYRDVMMENYGNLVSLGYSISKPDVITLLEQGKEPWMVLREETKRWDTDSFLS
B23: DOMAIN_12210 (protein, listed as Bos indicus)
chain: TQVSVTFDDVAVTFTQEEWGHLDPAQRTLYREVMLETCRLLMSLGCPVPRPELIYQQEHGQELWTVKRDLSRSTCAGYSSE
B24: DOMAIN_12214 (protein)
chain: GLVMFKDVAIDVSQEEWECLNPAQRNLYKDVMLENYSNLVSLGLSVSKPAMITSLEQGKEPWMVLREVTGERCPDLVSKCE
modifications: Muntiacus muntjak
B25: DOMAIN_12261 (protein, listed as Neophocaena asiaeorientalis)
chain: B1 chain with S47P, A52T, A60G, A70T, A71S, E74G, I75T, P77H
B26: DOMAIN_16806 (protein, listed as Sapajus apella)
chain: MVSFEDVAVLLSQEEWDCLIPAQRGLYRDVMLETYGNLVSLGLQASKPDVISRLEQGDEPWTTHTLRMQGSWSWRHKREGC
B27: DOMAIN_12313 (protein, listed as Bos indicus)
chain: SVTFEDVAVYFSWEEWALLDEAQRCLYHDVMLENFALTSSLGCWHGAEDKGAPSEKSISVEGVSQIKTLKADSCPQKGQPF
B28: DOMAIN_12320 (protein)
chain: SVMFSDVSIDFSLEEWEFLNLEQRDLYRDVMLENYSNLVSLGCFISKPDVISLLEQGKEPWKVVRQGRRQYPDLETNYEIK
modifications: Muntiacus muntjak
B29: DOMAIN_12365 (protein)
chain: SYEGSVSFRDVAIDFSREEWRHLDLSQRNLYRDVMLETYSHLLSVGYQVPEAEVVMLEQGKEPWALQGERPRHSCPGEKLW
modifications: Nomascus leucogenys
B30: DOMAIN_12395 (protein, listed as Ailuropoda melanoleuca)
chain: QSLVTFGDVAVDFSREEWEWLNSAQRTLHRDVMLENYRNLVSLGLCVSKPDMISSLEQRKEPWMLKRKLTRGRCPDLKTMQ
B31: DOMAIN_12463 (protein, listed as Ailuropoda melanoleuca)
chain: RPRAVKFADVAVYFSPEEWGCLRPAQRALYRDVMRETYGHLGALGCAGPKPALISWLERNTDEWEPAALDPRECPRGVTVQ
B32: DOMAIN_12467 (protein, listed as Gorilla sp.)
chain: AQTLLTFRDVAIEFSLEEWKCLDLAQQNLYRDVMLENYRNLFSVGLTVSKPGLITCLEQRKEPWNVKRQEAADGHPAMSSC
B33: DOMAIN_12498 (protein)
chain: QAEVTFEDVAVLLSQEEWGLLGPSQKGLYREVMLETYRNLLSLGAGLADPKPEVIVQLERGDELWVLDMHGAEQPSVDGSA
modifications: Muntiacus muntjak
B34: DOMAIN_12499 (protein)
chain: QILESLTFQDVAVDFTREEWDQLYPAQKNLYRDVMLENYRNLVALGHQLYKPEVITQLEQEERWMMGRVSPPDTHPDGENR
modifications: Muntiacus muntjak
B35: DOMAIN_12508 (protein, listed as Gorilla sp.)
chain: KSMVTFEDVAVYFSQEEWELLDAAQRHLYHSVMLENLELVTSLGCWHGVEGEEAHPEQNVSVEVLQVRIPNADPSTKKANS
B36: DOMAIN_12511 (protein, listed as Gorilla sp.)
chain: MALVTFRDVAIDFSQKEWECLDTTQRKLYRDVMLENYNNLVSLGYSGSKPDVITLLEQGKEPCVAARDVTGRQCPGLLSRH
B37: DOMAIN_12517 (protein, listed as Lynx canadensis)
chain: LLQESLTLEDVAVDFTQEEWRLLAPAQKDLYRDVMLENFRNLVSVGYVASMPAALSRLERGGRWMTEDETRRGICPEIKKD

Test system: HBEGF locus
Assay type: cell-based, human
[1] = repressor domain in dXR, repression of the HBEGF gene, abundance of domain in library after vs before diphtheria toxin selection
[2] = high-throughput screen of dXR repression of the HBEGF gene, change in abundance of each domain in the library before and after diphtheria toxin selection

Row | Molecule | Log2 (fold change) [1] | Log2 (fold change) [2]
1 | B1 | 3.6419 | –
2 | B2 | 3.0474 | –
3 | B3 | 3.5158 | –
4 | B4 | 3.2271 | –
5 | B5 | 3.5582 | –
6 | B6 | 3.751 | –
7 | B7 | – | 2.9781
8 | B8 | 4.1135 | –
9 | B9 | 4.3869 | –
10 | B10 | 3.0831 | –
11 | B11 | 3.7891 | –
12 | B12 | 2.4384 | –
13 | B13 | 2.7925 | –
14 | B14 | – | 3.2246
15 | B15 | 2.4029 | –
16 | B16 | 3.1752 | –
17 | B17 | 3.0204 | –
18 | B18 | 2.6974 | –
19 | B19 | 3.0332 | –

Row | Molecule | Log2 (fold change) [1] | Log2 (fold change) [2]
20 | B20 | 3.6477 | –
21 | B21 | 3.6138 | –
22 | B22 | 2.9023 | –
23 | B23 | 3.6136 | –
24 | B24 | 2.613 | –
25 | B25 | 2.7989 | –
26 | B26 | – | 3.9386
27 | B27 | 2.6903 | –
28 | B28 | 2.5075 | –
29 | B29 | 3.5626 | –
30 | B30 | 3.1504 | –
31 | B31 | 3.2567 | –
32 | B32 | 2.9575 | –
33 | B33 | 2.8947 | –
34 | B34 | 2.2932 | –
35 | B35 | 3.0173 | –
36 | B36 | 3.0694 | –
37 | B37 | 2.6983 | –
